Measurements published in PubChem BioAssay AID1030 (National Center for Advancing Translational Sciences (NCATS), 2008).
Where “and” joins values, the source holds several entries; their conditions need not be identical. Identical values can stand only once. Screen size: about 220,000 compounds; about 16,000 (7.3%) were called active. The shares of active, inactive and inconclusive entries below differ from those in the screen. Calls follow the shape of the dose curve; as a rule, active = well fitted inhibition curve with a large enough effect (not every such curve was filed as active); inconclusive = small, poorly fitted or top-dose-only effect, or another doubt; inactive = no such curve, though single readings can be large or run the other way. Where the call is inconclusive, the potency comes from a doubtful curve fit.

The compounds below were run against Aldehyde dehydrogenase 1A1 (Homo sapiens) (UniProt P00352) (assay: qHTS Assay for Inhibitors of Aldehyde Dehydrogenase 1 (ALDH1A1)). Details: Purified ALDH1A1, NADH fluorescence, propionaldehyde substrate; series mostly up to 75.3 µM.
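For activity, negative = inhibition in this document: plate controls were no enzyme wells and a reference inhibitor.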
Potency is read from the fitted curve at half-maximal effect; tags tell the direction and shape of the fitted curve.

Chain of UniProt P00352 (P00352 whole entry, looked up): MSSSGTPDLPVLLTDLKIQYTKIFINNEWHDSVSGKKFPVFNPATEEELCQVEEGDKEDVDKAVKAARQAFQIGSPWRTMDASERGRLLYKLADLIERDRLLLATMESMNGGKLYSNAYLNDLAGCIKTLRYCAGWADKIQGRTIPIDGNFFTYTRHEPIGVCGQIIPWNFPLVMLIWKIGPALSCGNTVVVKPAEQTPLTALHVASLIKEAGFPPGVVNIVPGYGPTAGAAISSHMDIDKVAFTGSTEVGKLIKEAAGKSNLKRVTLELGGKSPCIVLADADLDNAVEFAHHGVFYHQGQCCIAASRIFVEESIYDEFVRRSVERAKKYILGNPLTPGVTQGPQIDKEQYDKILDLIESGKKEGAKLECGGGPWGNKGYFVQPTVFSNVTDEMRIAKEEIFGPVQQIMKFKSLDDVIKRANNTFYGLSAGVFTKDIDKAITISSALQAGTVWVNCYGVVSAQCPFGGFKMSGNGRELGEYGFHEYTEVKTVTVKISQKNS

Potency, inactive:
O=C1CN(C(=O)COc2ccc(Br)cc2Br)c2ccccc2N1, Cc1cc(C)c(C)c(S(=O)(=O)N2CCN(CC(=O)NC(=O)NCc3ccccc3)CC2)c1C, Clc1ccc(OCCCc2nc(-c3cccnc3)no2)c(Cl)c1, CCOc1ccc(-n2nc(C(=O)N3CCN(CC)CC3)c3ccccc3c2=O)cc1, CC(=O)Nc1ccc(NC(=O)C/C(C)=N/NC(=O)C(=O)N2CCCC2)cc1, CCN(CC)CCOC(=O)C(Cc1cccc2ccccc12)CC1CCCO1 (stereo unspecified), CC(=O)n1nc(-c2ccco2)nc1SCc1ccccc1, CC12CCC(c3c(C(=O)N4CCOCC4)nn(-c4ccccc4)c31)C2(C)C (stereo unspecified), COc1ccc(CNc2ccc(-c3ccccc3OC)nn2)cc1, CNc1nc(-c2ccc([N+](=O)[O-])cc2)cs1, CCOc1ccc(C)cc1S(=O)(=O)n1ccc(C)n1, O=C(NCC1CCCO1)c1cc2ccccc2[nH]1 (stereo unspecified), Cn1c(CSc2nc3ccccc3s2)nnc1SCC(=O)NCCCN1CCOCC1, N#Cc1nc(Cc2cccc3ccccc23)oc1N1CCOCC1, OCC1(CCOc2ccccc2)CCN(CCCn2cccn2)CC1, CCc1ccc(N2CC(O)=C(c3nc4ccccc4c(=O)[nH]3)C2=N)cc1

Potency, inconclusive:
CC1CCN(CC(=O)NCCc2ccc(F)cc2)CC1 39.8 µM [inhibitor, single point], CC1CCCN(c2ccc(C(=O)NCCc3ccccc3)cn2)C1 (stereo unspecified) 25.1 µM [inhibitor, partial curve], CCCCN1C2=C(C(=O)CC(C)(C)C2)C(c2ccccc2)C2=C1c1ccccc1C2=O (stereo unspecified) 28.2 µM [inhibitor, partial curve, poor fit], CC(C)Sc1nc(N2CCOCC2)c2c(c1C#N)CC(C)(C)SC2 28.2 µM [inhibitor, partial curve], Cc1c(NC(=O)c2cccc(F)c2)c(=O)n(-c2ccccc2)n1C 14.1 µM [inhibitor, single point], COC(=O)c1c(NC(=O)/C=C/C(=O)O)sc(Cc2ccccc2)c1C 39.8 µM [inhibitor, single point], Cc1ccc(-c2ccc(OCC(=O)N3CCOCC3)cc2)cc1 39.8 µM [inhibitor, single point], CN(C)CCNS(=O)(=O)N(C)C 0.0071 µM [inhibitor, full curve, poor fit], COc1ccc(OC)c(N(CC(=O)N2CCCC2)S(=O)(=O)c2ccc(OC)c(OC)c2)c1 44.7 µM [inhibitor, single point], Cc1oc(-c2cccc(Br)c2)[n+]([O-])c1C 39.8 µM [inhibitor, single point], O=C(CCn1c(=O)c2sccc2n(CC(=O)OCc2ccccc2)c1=O)NCc1ccccc1 17.8 µM [inhibitor, partial curve], Cc1cc(C)n2nc(SCc3cc(=O)oc4cc(C)c(C)cc34)nc2n1 4.47 µM [inhibitor, full curve], O=C(Cn1ncc2c3ccccc3n(Cc3ccc(F)cc3)c2c1=O)N1CCN(c2ncccn2)CC1 35.5 µM [inhibitor, single point], CC(=O)Nc1nnc(-c2ccc(Cl)s2)o1 22.4 µM [inhibitor, partial curve], COc1ccc(/C=N/Nc2ncccc2[N+](=O)[O-])c(OC)c1 39.8 µM [inhibitor, single point], CCn1c2c(c3cc(OCC(C)C)ccc31)CCCC2=O 28.2 µM [inhibitor, partial curve], CCNc1ncc2nc(-c3ccc(F)cc3)c(=O)n(CCOC)c2n1 3.98 µM [inhibitor, partial curve], O=S(=O)(c1ccc(Oc2ccc(Br)cc2F)nc1)N1CCCCC1 25.1 µM [inhibitor, single point], Cc1ccc2nc(CSc3nc(C)cc(C)c3C#N)[nH]c2c1 22.4 µM [inhibitor, partial curve], O=c1c2ccccc2nc(SCc2cccc(F)c2)n1Cc1ccco1 25.1 µM [inhibitor, single point], CCNC(=S)N(Cc1ccccc1)Cc1nc2ccccc2c(=O)[nH]1 7.08 µM [inhibitor, single point], Cc1cc(/C=N/n2cnnc2)c(C)n1-c1ccc(Cl)cc1 37.7 µM [inhibitor, single point], O=S(=O)(c1ccccc1)c1nc(-c2cccs2)oc1NCC1CCCO1 (stereo unspecified) 28.2 µM [inhibitor, single point], CCOC(=O)N1CCN(C(=O)c2cc3c(s2)-c2ccccc2OC3)CC1 31.6 µM [inhibitor, partial curve], Cc1ccc(C(=O)Nc2cc(=O)n(C)c(=O)n2C)cc1C 31.6 µM [inhibitor, single point], Cc1cc(-n2c(C)cc(C(=O)COc3ccc4ccc(=O)oc4c3)c2C)no1 31.6 µM [inhibitor, partial curve], CCCCOC(=O)CSC1=C(C#N)C(c2ccc3c(c2)OCO3)CC(=O)N1 (stereo unspecified) 25.1 µM [inhibitor, single point], COC(=O)c1sccc1NC(=O)/C=C/c1ccc(Cl)cc1 39.8 µM [inhibitor, single point], Cc1nc2c(c(=O)n1CCC1=CCCCC1)c1nc3ccccc3nc1n2/N=C/c1ccccc1 14.1 µM [inhibitor, partial curve], CCN(CC)C(=S)Nc1ccc2nc3n(c(=O)c2c1)CCCCC3 22.4 µM [inhibitor, partial curve], c1coc(CNc2ncnc3sc4c(c23)CCCCC4)c1 22.4 µM [inhibitor, single point], COc1ccccc1-c1ccc(C(=O)O)o1 35.5 µM [inhibitor, partial curve] and 28.2 µM [inhibitor, partial curve], CS(=O)(=O)N1CCC(C(=O)N2CCN(c3cccc(Cl)c3)CC2)CC1 8.91 µM [inhibitor, single point], COc1ccc(-c2nc3ccccc3n2CCC(C)C)cc1OC 39.8 µM [inhibitor, single point], CCC(C)(C)n1nnnc1CN1CCSCC1 25.1 µM [inhibitor, partial curve], CCc1[nH]nc2c1C(C(C)C)C(C#N)=C(N)O2 (stereo unspecified) 15.8 µM [inhibitor, partial curve, poor fit], COCCNc1oc(-c2ccccc2Cl)nc1C#N 22.4 µM [inhibitor, partial curve], O=c1c(-c2ccccc2)nc2cnc(N3CCOCC3)nc2n1CCc1ccccc1 14.1 µM [inhibitor, partial curve], Cc1cc(OCC(=O)N2CCOCC2)cc2oc(=O)c3ccccc3c12 31.6 µM [inhibitor, partial curve], CCCCc1nc(SCCOC)c2c(=O)n(C)c(=O)n(C)c2n1 39.8 µM [inhibitor, single point], O=C(CCSc1ccccc1)NC(=O)COC(=O)c1ccc(OC(F)F)cc1 39.8 µM [inhibitor, single point], COC(=O)[C@H]1C[C@@H]1[C@H](NC(=O)OCc1ccccc1)c1ccccc1 39.8 µM [inhibitor, single point] and 17.8 µM [inhibitor, partial curve], CN1CCN(C(=O)c2cc3nc(-c4ccccc4)cc(-c4ccccc4)n3n2)CC1 31.6 µM [inhibitor, partial curve], O=C(/C=C/c1ccco1)Nc1ccc2nn(-c3ccccc3)nc2c1 25.1 µM [inhibitor, single point], COc1ccc(N2CCN(C(=O)CCc3ccc(S(=O)(=O)NC(C)C)cc3)CC2)cc1 39.8 µM [inhibitor, single point]

Potency, active:
COc1ccc([N+](=O)[O-])cc1C1NN=C(c2cccc3ccccc23)S1 (stereo unspecified) 10 µM, CCOC(=O)c1c(-c2ccco2)csc1N 20 µM, COc1ccc(N/N=C(/C)c2cnnc(-c3ccccc3)n2)cc1 9.46 µM, CCOc1ccc(C(=O)CSc2nnc(C3CC3)n2C)cc1 7.94 µM, COc1ccccc1-n1c(SCC(=O)Nc2ccc3c(c2)OCO3)nc2c(c1=O)SCC2 20 µM, C#CCN1C(=O)C(O)(CC(=O)/C=C/c2ccco2)c2ccccc21 (stereo unspecified) 1.58 µM, CC(C)(C)SCCNC(=O)/C=C/c1cccc([N+](=O)[O-])c1 14.1 µM, COc1ccc(-c2noc(=O)n2CC(=O)N2CCC(Cc3ccccc3)CC2)cc1 25.1 µM, CCOc1ccc(Br)cc1S(=O)(=O)Nc1ccc(C(=O)Nc2ccccc2OC)cc1 15.8 µM

activity, negative = inhibition, inactive:
O=C(O)CC[C@@H](C(=O)O)N1C(=O)[C@@H]2[C@@H]3CC[C@H](C3)[C@@H]2C1=O 6.48% [at 13.5 µM]
